Hit rate of the full screen: of about 39,000 compounds, about 220 (0.56%) showed activity. Some of the results follow.
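Also: static incubation at 37 °C against the wild-type strain, values averaged over two biological replicates.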

The assay deals with Escherichia coli K-12 BW25113. The experiment in a line: relative growth (OD600 normalised to plate interquartile mean) (fraction); higher = less growth inhibition, active = 0.2 or less. The note with it: 50 µM; LB; incubation time: overnight (16-24 h).
`COc1ccc(NC(=O)Nc2ccc3c(c2)C(=O)N([C@@H](C)CO)C[C@H](C)[C@H](CN(C)S(=O)(=O)c2ccc(OC)cc2)OCCCC[C@@H](C)O3)cc1`: the relative growth is inactive: 1.03.

Take `C[C@@H]1CN([C@H](C)CO)C(=O)c2cc(C#CC3(O)CCCC3)cnc2O[C@@H]1CN(C)C(=O)Cc1ccccc1`: the relative growth was inactive: 0.98.

As to `COc1ccc(NC(=O)Nc2ccc3c(c2)C(=O)N([C@@H](C)CO)C[C@@H](C)[C@@H](CN(C)Cc2ccccc2)OCCCC[C@@H](C)O3)cc1`, the relative growth is inactive: 1.

Consider `Cc1noc(C)c1NC(=O)Nc1ccc2c(c1)C(=O)N([C@H](C)CO)C[C@H](C)[C@H](CN(C)Cc1ccc(C(F)(F)F)cc1)OCCCC[C@@H](C)O2`, for which the relative growth is inactive: 0.971.

As to `C[C@@H]1CN([C@H](C)CO)C(=O)c2cc(N(C)C)ccc2O[C@@H](C)CCCCO[C@@H]1CN(C)C(=O)Nc1ccc(C(F)(F)F)cc1`, the relative growth is inactive: 1.

On to `CNC(=O)c1c(I)c(NC(C)=O)c(I)c(C(=O)O)c1I`, for which the relative growth was inactive: 1.18.

`Cc1noc(C)c1S(=O)(=O)Nc1cccc2c1O[C@H](CN(C)Cc1ccccc1)[C@H](C)CN([C@H](C)CO)C2=O`: the relative growth is inactive: 1.01.

For `COC(=O)c1c(CC[C@@H](CO)NC(=O)N[C@@H](Cc2ccccc2)Cn2cc(C3(O)CCCC3)nn2)oc(C(=O)N2CCOCC2)c1C(=O)OC`, the relative growth was inactive: 0.996.

For `CS(=O)(=O)N1C[C@@H]2OCCN(c3cnccn3)[C@H]2C1`, the relative growth was inactive: 1.01.

For `C[C@H]1CN([C@@H](C)CO)C(=O)Cc2cc(NC(=O)CCN3CCOCC3)ccc2O[C@H]1CN(C)CC1CC1`, the relative growth was inactive: 0.999.

Consider `Clc1ccc(-c2cnc3ccc(-c4ccccc4)cn23)cc1`, for which the relative growth is inactive: 1.

`C[C@@H]1CCCCO[C@H](CN(C)C(=O)c2ccccc2)[C@@H](C)CN([C@@H](C)CO)C(=O)c2cc(NC(=O)Nc3ccc(F)cc3)ccc2O1`: the relative growth is inactive: 0.987.

For the molecule `C[C@@H]1CN([C@@H](C)CO)C(=O)c2cc(C#Cc3ccccc3F)cnc2O[C@@H]1CN(C)C(=O)Cc1cccnc1`, the relative growth was inactive: 0.999.

In the case of `C[C@H]1CN([C@@H](C)CO)C(=O)c2cc(NC(=O)NC3CCCCC3)ccc2O[C@H]1CN(C)Cc1ccc(C(F)(F)F)cc1`, the relative growth was inactive: 0.994.

`C[C@@H]1CCCCO[C@@H](CN(C)Cc2ccncc2)[C@H](C)CN([C@H](C)CO)C(=O)c2cc(NC(=O)C3CCCCC3)ccc2O1`: the relative growth is inactive: 1.01.

With `C[C@@H]1CN([C@@H](C)CO)C(=O)c2cc(NS(=O)(=O)c3cccs3)ccc2O[C@@H](C)CCCCO[C@@H]1CN(C)C(=O)Nc1cccc2ccccc12`, the relative growth is inactive: 1.01.

`C[C@@H]1CN([C@@H](C)CO)C(=O)c2cccc(NC(=O)c3ccc(-c4nccs4)cc3)c2O[C@@H]1CN(C)C(=O)Nc1ccc(F)cc1`: the relative growth is inactive: 0.997.

In the case of `COc1ccc(-c2cnc3c(c2)C(=O)N([C@@H](C)CO)C[C@@H](C)[C@@H](CN(C)C(=O)Cc2cccnc2)O3)cc1`, the relative growth is inactive: 1.

Regarding `C[C@@H]1CN([C@@H](C)CO)C(=O)c2cc(NC(=O)CCC(F)(F)F)ccc2O[C@@H](C)CCCCO[C@H]1CN(C)Cc1ccc2c(c1)OCO2`, the relative growth is inactive: 0.991.

Take `OCc1cccc(-c2ccsc2)c1`: the relative growth was inactive: 0.966.

For `COCC#Cc1ccc2c(c1)O[C@@H](CN(C)Cc1ccc(F)cc1)[C@H](C)CN([C@@H](C)CO)S2(=O)=O`, the relative growth was inactive: 1.05.

With `COc1cccc(-c2ccc3c(c2)O[C@@H](CN(C)C(=O)C2CCC2)[C@@H](C)CN([C@@H](C)CO)S3(=O)=O)c1`, the relative growth was inactive: 1.02.

As to `C[C@H](CO)N1C[C@H](C)[C@@H](CN(C)Cc2ccc(Oc3ccccc3)cc2)Oc2c(NC(=O)Cc3ccccc3)cccc2C1=O`, the relative growth was inactive: 1.03.

Regarding `O=C(NCCO)C(=O)NCc1ccco1`, the relative growth is inactive: 0.99.

Take `CC(=O)N1CC(=O)N(c2cnn(C)c2)C[C@]12CCN(C(=O)c1cnc(C)cn1)C2`: the relative growth is inactive: 0.975.

For `C[C@@H]1CN([C@H](C)CO)C(=O)c2cc(NC(=O)Nc3ccc(F)cc3)ccc2O[C@H]1CN(C)S(=O)(=O)c1cn(C)cn1`, the relative growth is inactive: 1.01.

Turning to `CN1CCN(C(=O)C[C@H]2C=C[C@@H](NC(=O)Nc3ccccc3F)[C@@H](CO)O2)CC1`, the relative growth was inactive: 0.995.

For the molecule `O=C1C(=CNC(CO)(CO)CO)C(=O)c2ccccc21`, the relative growth is inactive: 1.01.

Take `C[C@@H]1CCCCO[C@@H](CN(C)C(=O)CCC(F)(F)F)[C@@H](C)CN([C@@H](C)CO)C(=O)c2cc(NS(=O)(=O)c3ccc(F)cc3)ccc2O1`: the relative growth was inactive: 0.984.

In the case of `O=C(C[C@@H]1CC[C@H]2[C@@H](COC[C@@H](O)CN2C(=O)c2ccc3c(c2)OCO3)O1)NCCN1CCCC1`, the relative growth is inactive: 1.01.

Take `N#CCn1ccccc1=O`: the relative growth is inactive: 0.984.

On to `O=C(C[C@@H]1CC[C@@H]2[C@H](COC[C@@H](O)CN2S(=O)(=O)c2cccc(F)c2)O1)NCc1ccc2c(c1)OCO2`, for which the relative growth is inactive: 1.04.

Consider `C[C@@H]1CCCCO[C@H](CN(C)Cc2ccccc2)[C@H](C)CN([C@H](C)CO)C(=O)c2cc(NS(=O)(=O)c3cccs3)ccc2O1`, for which the relative growth is inactive: 1.03.

For the molecule `C[C@H](CO)N1C[C@H](C)[C@@H](CN(C)C(=O)Nc2ccc(C(F)(F)F)cc2)Oc2ccc(NS(=O)(=O)c3ccc(Cl)cc3)cc2C1=O`, the relative growth is inactive: 1.05.

On to `CO[C@@H]1CN(C)C(=O)c2cc(NC(=O)CN(C)C)ccc2OC[C@@H](C)N(Cc2ccccc2F)C[C@H]1C`, for which the relative growth was inactive: 1.03.

On to `Cc1ccc(S(=O)(=O)N(C)C[C@H]2Oc3cc(Br)ccc3S(=O)(=O)N([C@@H](C)CO)C[C@@H]2C)cc1`, for which the relative growth was inactive: 1.02.

Take `C[C@H]1CCCCO[C@H](CN(C)C(=O)CCC(F)(F)F)[C@@H](C)CN([C@@H](C)CO)C(=O)c2cc(NC(=O)Nc3ccc4c(c3)OCO4)ccc2O1`: the relative growth was inactive: 1.02.

Turning to `CC(C)(C)NCC(O)COc1ccccc1C1CCCC1.O=S(=O)(O)O` (stereo not given), the relative growth is inactive: 0.863.

As to `C[C@@H]1CCCCO[C@H](CN(C)C)[C@H](C)CN([C@H](C)CO)C(=O)c2cc(NS(=O)(=O)c3cn(C)cn3)ccc2O1`, the relative growth is inactive: 0.976.

For the molecule `Nc1ncnc2c1CCC2`, the relative growth is inactive: 1.

As to `C[C@@H]1CN([C@H](C)CO)C(=O)c2cccc(NC(=O)Nc3ccc(F)cc3)c2O[C@H]1CN(C)C(=O)Nc1cccc2ccccc12`, the relative growth was inactive: 0.997.

Turning to `COc1ccc(CN(C)C[C@@H]2OCCCC[C@@H](C)Oc3ccc(NC(=O)Nc4cccc5ccccc45)cc3C(=O)N([C@H](C)CO)C[C@H]2C)cc1`, the relative growth was inactive: 0.993.

Take `Cc1noc(C)c1S(=O)(=O)Nc1ccc2c(c1)C(=O)N([C@@H](C)CO)C[C@@H](C)[C@@H](CN(C)S(=O)(=O)c1cn(C)cn1)OCCCC[C@H](C)O2`: the relative growth is inactive: 1.04.

As for `Cc1noc(C)c1NC(=O)Nc1ccc2c(c1)C(=O)N([C@H](C)CO)C[C@@H](C)[C@H](CN(C)Cc1ccccc1)OCCCC[C@@H](C)O2`, the relative growth is inactive: 0.974.

As for `C[C@H](CO)N1C[C@H](C)[C@@H](CN(C)S(=O)(=O)c2ccc(Cl)cc2)Oc2ccc(NC(=O)Nc3cccc4ccccc34)cc2C1=O`, the relative growth is inactive: 0.934.

For the molecule `O=C(Nc1ccc(-c2nc3ccc(NC(=O)c4ccc(NC(=O)c5cccc6ccccc56)cc4)cc3[nH]2)cc1)c1ccc(NC(=O)c2cccc3ccccc23)cc1`, the relative growth is inactive: 1.02.

Regarding `C[C@@H]1CN([C@@H](C)CO)C(=O)c2cccc(NS(=O)(=O)c3ccc(Cl)cc3)c2O[C@@H]1CN(C)Cc1ccc(-c2ccccc2)cc1`, the relative growth is inactive: 0.98.

Consider `CCCNC(=O)N(C)C[C@@H]1Oc2cc(C#Cc3cccc(F)c3)ccc2S(=O)(=O)N([C@@H](C)CO)C[C@H]1C`, for which the relative growth was inactive: 1.

Turning to `C[C@@H]1CN([C@@H](C)CO)C(=O)c2cc(NC(=O)c3ccccc3)ccc2O[C@@H](C)CCCCO[C@@H]1CN(C)C(=O)Nc1ccc(C(F)(F)F)cc1`, the relative growth is inactive: 1.02.

As for `C[C@@H]1CN([C@H](C)CO)C(=O)c2cccc(NC(=O)Nc3ccc4c(c3)OCO4)c2O[C@H]1CN(C)C(=O)Nc1ccc(C(F)(F)F)cc1`, the relative growth is inactive: 0.913.

Turning to `C[C@H](CO)N1C[C@H](C)[C@@H](CN(C)C(=O)Nc2ccccc2)Oc2cc(Br)ccc2S1(=O)=O`, the relative growth is inactive: 0.95.

Consider `COc1ccc(S(=O)(=O)Nc2cccc3c2O[C@H](CN(C)C(=O)NC(C)C)[C@H](C)CN([C@H](C)CO)C3=O)cc1`, for which the relative growth is inactive: 1.

For `Cc1noc(C)c1S(=O)(=O)N(C)C[C@H]1Oc2ccc(NC(=O)NC3CCCCC3)cc2CC(=O)N([C@H](C)CO)C[C@@H]1C`, the relative growth was inactive: 0.986.

`COc1ccc(C(=O)C=Cc2ccccc2)cc1`: the relative growth was inactive: 0.991.

As for `C[C@H]1CN([C@@H](C)CO)C(=O)c2cc(NC(=O)c3ccncc3)ccc2O[C@@H]1CN(C)Cc1ccc(-c2ccccc2)cc1`, the relative growth was inactive: 0.998.

With `Cc1noc(C)c1NC(=O)Nc1ccc2c(c1)C(=O)N([C@@H](C)CO)C[C@@H](C)[C@H](CN(C)Cc1ccncc1)OCCCC[C@H](C)O2`, the relative growth is inactive: 0.993.

Regarding `O=C(C[C@@H]1CC[C@H]2[C@@H](COC[C@H](O)CN2S(=O)(=O)c2ccc(Cl)cc2)O1)N[C@H]1CCN(Cc2ccccc2)C1`, the relative growth was inactive: 0.998.

As to `C[C@@H]1CN([C@@H](C)CO)C(=O)c2cc(NC(=O)CCCN(C)C)ccc2O[C@@H]1CN(C)S(=O)(=O)c1ccc(F)cc1`, the relative growth was inactive: 1.01.

Regarding `COCCNC(=O)C[C@@H]1CC[C@H]2[C@@H](COC[C@H](O)CN2S(=O)(=O)c2ccccc2F)O1`, the relative growth was inactive: 0.994.

Take `COc1ccc(S(=O)(=O)N(C)C[C@H]2OCc3cnnn3CCCC(=O)N([C@H](C)CO)C[C@@H]2C)cc1`: the relative growth is inactive: 0.928.

These data come from the supplement of paper PMC9446081.
